# In the antibiotic and cytotoxicity screens of Wong et al. (2023):
# The list shows a part of the results.
# Tested on: S. aureus RN4220
# Assay: growth inhibition call (relative growth <= 0.2)
# Details: 50 µM
row,SMILES,growth inhibition call
1,COc1ccc(S(=O)(=O)Nc2cccc3c2O[C@H](CN(C)S(=O)(=O)c2ccc(C)cc2)[C@H](C)CN([C@@H](C)CO)C3=O)cc1,inactive
2,O=C(C[C@H]1CC[C@@H](NC(=O)CN2CCOCC2)[C@@H](CO)O1)NCCc1ccncc1,inactive
3,COc1ccc2c(c1)OCC(=Cc1ccc(OC)c(O)c1)C2=O,inactive
4,Cc1ccc(S(=O)(=O)Nc2ccc3c(c2)C(=O)N([C@H](C)CO)C[C@H](C)[C@H](CN(C)S(=O)(=O)c2ccccc2)O3)cc1,inactive
5,O=C1CC(c2ccc(O)cc2)Oc2cc(O)cc(O)c21 (centres undefined),inactive
6,COCC#Cc1cnc2c(c1)C(=O)N([C@H](C)CO)C[C@@H](C)[C@H](CN(C)C(=O)CN1CCOCC1)O2,inactive
7,C[C@H](CO)N1C[C@H](C)[C@H](CN(C)S(=O)(=O)c2ccc(F)cc2)Oc2ccc(NS(=O)(=O)c3cccs3)cc2C1=O,inactive
8,C=CC[C@H](CC(=O)NCCO)C(=O)N[C@@H](COC(=O)[C@@H](CC=C)CC(=O)OC(C)(C)C)Cc1c[nH]c2ccccc12,inactive
9,COc1ccc(S(=O)(=O)N[C@@H]2CC[C@H](CC(=O)N3CCC(Cc4ccccc4)CC3)O[C@H]2CO)cc1,inactive
10,N=C(N)NCCNS(=O)(=O)c1cccc2cnccc12,inactive
11,Cc1cccc(CO)n1,inactive
12,CCOc1ccc(S(N)(=O)=O)cc1,inactive
13,C[C@@H]1CCCCO[C@@H](CN(C)S(=O)(=O)c2ccc(Cl)cc2)[C@@H](C)CN([C@H](C)CO)C(=O)c2cc(NC(=O)Nc3ccc4c(c3)OCO4)ccc2O1,inactive
14,C[C@H](CO)N1C[C@H](C)[C@@H](CN(C)S(=O)(=O)c2ccccc2)OCCCC[C@H](C)Oc2ccc(NC(=O)Nc3cccc4ccccc34)cc2C1=O,inactive
15,C[C@@H]1CN([C@@H](C)CO)C(=O)c2cc(NS(=O)(=O)c3ccc(F)cc3)ccc2O[C@H]1CN(C)S(=O)(=O)c1cccs1,inactive
16,Cc1ccc(S(=O)(=O)N[C@@H]2CC[C@H](CCNC(=O)CN3CCOCC3)O[C@H]2CO)cc1,inactive
17,O=C(C[C@@H]1CC[C@@H]2[C@H](COC[C@@H](O)CN2C(=O)Nc2cccc(Cl)c2)O1)NCc1ccccc1F,active
18,C[C@@H]1CN([C@@H](C)CO)C(=O)c2cccc(NC(=O)C3CC3)c2O[C@@H]1CN(C)S(=O)(=O)c1ccc(Cl)cc1,inactive
19,C[C@@H]1CN([C@@H](C)CO)C(=O)Cc2cc(NC(=O)Cn3cnnn3)ccc2O[C@@H]1CN(C)Cc1ccc(Cl)c(Cl)c1,inactive
20,C[C@H](CO)N1C[C@H](C)[C@H](CN(C)S(=O)(=O)c2ccccc2)Oc2ccc(NS(=O)(=O)c3ccccc3)cc2CC1=O,inactive
21,CO[C@H]1O[C@H](CO)[C@@H](OC(=O)Nc2ccc(Oc3ccccc3)cc2)[C@H](OC(=O)Nc2ccccc2-c2ccccc2)[C@@H]1OC(=O)Nc1ccccc1-c1ccccc1,inactive
22,C[C@@H]1CCCCO[C@@H](CN(C)C(=O)Nc2ccc(F)cc2)[C@H](C)CN([C@@H](C)CO)C(=O)c2cc(NS(=O)(=O)c3ccccc3)ccc2O1,inactive
23,CN(C)c1cc[n+](C(=O)N2CCOCC2)cc1,inactive
24,COc1ccc(-c2cnc3c(c2)C(=O)N([C@@H](C)CO)C[C@@H](C)[C@@H](CN(C)S(=O)(=O)c2ccc(OC)cc2)O3)cc1,inactive
25,C[C@@H]1CN([C@@H](C)CO)C(=O)c2cc(NC(=O)Cn3cnnn3)ccc2O[C@H]1CN(C)C(=O)Nc1ccc(F)cc1,inactive
26,C[C@@H]1CN([C@H](C)CO)S(=O)(=O)c2ccc(C#C[C@@H](C)O)cc2O[C@@H]1CN(C)C,inactive
27,COc1ccc(S(=O)(=O)N(C)C[C@@H]2Oc3ccc(NC(=O)c4ccncc4)cc3CC(=O)N([C@H](C)CO)C[C@H]2C)cc1,inactive
28,C[C@H](CO)N1C[C@H](C)[C@H](CN(C)Cc2ccc(Oc3ccccc3)cc2)Oc2ccc(NS(=O)(=O)c3ccc(Cl)cc3)cc2C1=O,inactive
29,Cc1noc(C)c1NC(=O)N(C)C[C@@H]1Oc2ccc(NS(=O)(=O)c3ccccc3)cc2CC(=O)N([C@@H](C)CO)C[C@@H]1C,inactive
